Some of the results follow. Many values rest on one well or one pass, so single values are uncertain.
Experiments:
Test in all cases: cell count relative to DMSO control; melanoma cells; higher = more viable cells
Conditions in all cases: library dose: standard library concentration; 72 h
SkMel28 = system: SkMel28
SkMel2 = system: SkMel2
SkMel30 = system: SkMel30
SkMel5 = system: SkMel5
UACC257 = system: UACC257
UACC62 = system: UACC62
WM115 = system: WM115
WM1716 = system: WM1716
WM1745 = system: WM1745
WM3526 = system: WM3526
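Note: cells treated in 1,536-well plates, then fixed and DAPI-stained, with nuclei counted from automated high-throughput microscope images.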

Row | SMILES | cell count (SkMel28) | cell count (SkMel2) | cell count (SkMel30) | cell count (SkMel5) | cell count (UACC257) | cell count (UACC62) | cell count (WM115) | cell count (WM1716) | cell count (WM1745) | cell count (WM3526)
1 | Cn1cc(C2=C(c3cn(C4CCN(Cc5ccccn5)CC4)c4ccccc34)C(=O)NC2=O)c2ccccc21 [Enzastaurin] + C=CCn1c(=O)c2cnc(Nc3ccc(N4CCN(C)CC4)cc3)nc2n1-c1cccc(C(C)(C)O)n1 [MK1775] (first compound 4 µM, partner dose 0.1 µM) | 40.8% | 82.9% | 95% | 48.9% | 97.8% | 68.5% | 82.9% | 72.5% | 42.8% | 79.9%
2 | N.N.[Cl][Pt][Cl] [cisplatin] + CC1(C)NC(=O)N(c2ccc([N+](=O)[O-])c(C(F)(F)F)c2)C1=O [nilutamide] (first compound 8 µM, partner dose 5 µM) | 78.6% | 101% | 98.3% | 90.2% | 83.1% | 91.8% | 90.1% | 86.2% | 87.5% | 98.9%
3 | C[C@]12O[C@H](C[C@]1(O)CO)n1c3ccccc3c3c4c(c5c6ccccc6n2c5c31)CNC4=O [Lestaurtinib] + CC(=O)O[C@@]12CO[C@@H]1C[C@H](O)[C@@]1(C)C(=O)[C@H](O)C3=C(C)[C@@H](OC(=O)[C@H](O)[C@@H](NC(=O)OC(C)(C)C)c4ccccc4)C[C@@](O)([C@@H](OC(=O)c4ccccc4)[C@H]21)C3(C)C [Docetaxel] (first compound 0.02 µM, partner dose 0.0005 µM) | 13.1% | 14.2% | 33.2% | 28.1% | 58.8% | 53.4% | 28.3% | 31.6% | 24% | 30.4%
4 | C[As](C)SC[C@H](NC(=O)CC[C@H](N)C(=O)O)C(=O)NCC(=O)O [Darinaparsin] + Cc1cc(N2CCOCC2)cc2[nH]c(-c3c(NC[C@@H](O)c4cccc(Cl)c4)cc[nH]c3=O)nc12 [BMS536924] (first compound 2 µM, partner dose 1 µM) | 60.5% | 82.5% | 77.3% | 71.7% | 83.4% | 101% | 68.4% | 58.7% | 52.7% | 56.5%
5 | N.N.[Cl][Pt][Cl] [cisplatin] + Cn1c(Nc2ccc(C(F)(F)F)cc2)nc2cc(Oc3ccnc(-c4ncc(C(F)(F)F)[nH]4)c3)ccc21 [CHIR265] (first compound 8 µM, partner dose 0.4 µM) | 63.6% | 106% | 67.9% | 67.8% | 72.4% | 68.6% | 79.1% | 85.8% | 82.3% | 59.6%
6 | Cn1cc(C2=C(c3cn(C4CCN(Cc5ccccn5)CC4)c4ccccc34)C(=O)NC2=O)c2ccccc21 [Enzastaurin] + C[C@]1(c2nc3c(C(N)=O)cccc3[nH]2)CCCN1 [Veliparib] (first compound 4 µM, partner dose 7 µM) | 74.1% | 91.2% | 106% | 65.7% | 72.6% | 67.7% | 82.3% | 76.8% | 45.9% | 94.5%
7 | N.N.[Cl][Pt][Cl] [cisplatin] + CCCS(=O)(=O)Nc1ccc(F)c(C(=O)c2c[nH]c3ncc(Cl)cc23)c1F [PLX4720] (first compound 8 µM, partner dose 0.4 µM) | 63.6% | 86.5% | 93.1% | 94.1% | 83.8% | 66.6% | 90.4% | 74.6% | 95.5% | 64.8%
8 | Cn1cc(C2=C(c3cn(C4CCN(Cc5ccccn5)CC4)c4ccccc34)C(=O)NC2=O)c2ccccc21 [Enzastaurin] + CS(=O)(=O)c1ccc(C(=O)Nc2ccc(Cl)c(-c3ccccn3)c2)c(Cl)c1 [vismodegib] (first compound 4 µM, partner dose 5 µM) | 94.8% | 57.1% | 88.9% | 99.7% | 103% | 102% | 123% | 97.3% | 76.8% | 82.5%
9 | C[As](C)SC[C@H](NC(=O)CC[C@H](N)C(=O)O)C(=O)NCC(=O)O [Darinaparsin] + O=C(Nc1ccccc1)c1cc([N+](=O)[O-])ccc1Cl [GW9662] (first compound 2 µM, partner dose 10 µM) | 53% | 85% | 62.3% | 47% | 62.2% | 73.9% | 63.2% | 49.2% | 80.8% | 67.2%
10 | C[C@]12O[C@H](C[C@]1(O)CO)n1c3ccccc3c3c4c(c5c6ccccc6n2c5c31)CNC4=O [Lestaurtinib] + C[As](C)SC[C@H](NC(=O)CC[C@H](N)C(=O)O)C(=O)NCC(=O)O [Darinaparsin] (first compound 0.02 µM, partner dose 2 µM) | 101% | 103% | 95.6% | 55.4% | 82.2% | 87.7% | 68.1% | 74.3% | 100% | 72.6%
11 | Cn1cc(C2=C(c3cn(C4CCN(Cc5ccccn5)CC4)c4ccccc34)C(=O)NC2=O)c2ccccc21 [Enzastaurin] + CCN(CC)CCNC(=O)c1c(C)[nH]c(/C=C2\C(=O)Nc3ccc(F)cc32)c1C [sunitinib] (first compound 4 µM, partner dose 2 µM) | 64.1% | 68.5% | 66.2% | 63.4% | 76.7% | 35.5% | 83.9% | 89% | 28.8% | 61.1%
12 | C[C@]12O[C@H](C[C@]1(O)CO)n1c3ccccc3c3c4c(c5c6ccccc6n2c5c31)CNC4=O [Lestaurtinib] + OCc1c[nH]c2ccccc12 [Indole-3-carbinol] (first compound 0.02 µM, partner dose 4 µM) | 69.6% | 100% | 75.6% | 75.8% | 106% | 91.3% | 68.9% | 109% | 88.3% | 79.8%
13 | C[As](C)SC[C@H](NC(=O)CC[C@H](N)C(=O)O)C(=O)NCC(=O)O [Darinaparsin] + O=S(=O)(c1ccccc1)N(CC(F)(F)F)c1ccc(C(O)(C(F)(F)F)C(F)(F)F)cc1 [T0901317] (first compound 2 µM, partner dose 7 µM) | 68.3% | 76.1% | 80.4% | 55.8% | 82.3% | 94.3% | 80.8% | 75.1% | 83% | 73.6%
14 | N.N.[Cl][Pt][Cl] [cisplatin] + C[C@@H]1CCN(C(=O)CC#N)C[C@@H]1N(C)c1ncnc2[nH]ccc12 [CP690550] (first compound 8 µM, partner dose 5 µM) | 86.7% | 84.9% | 79.3% | 91.8% | 84.9% | 110% | 93.9% | 88.7% | 112% | 100%
15 | N.N.[Cl][Pt][Cl] [cisplatin] + CN(C)S(=O)(=O)c1ccc2c(c1)/C(=C/c1cc3c([nH]1)CCCC3)C(=O)N2 [SU6656] (first compound 8 µM, partner dose 2 µM) | 47.5% | 82.7% | 71.3% | 72% | 104% | 101% | 67.8% | 93.9% | 66.6% | 89.3%
16 | C[C@]12O[C@H](C[C@]1(O)CO)n1c3ccccc3c3c4c(c5c6ccccc6n2c5c31)CNC4=O [Lestaurtinib] + CC1(C)NC(=O)N(c2ccc([N+](=O)[O-])c(C(F)(F)F)c2)C1=O [nilutamide] (first compound 0.02 µM, partner dose 5 µM) | 65.8% | 108% | 109% | 59.9% | 109% | 106% | 93.7% | 97.5% | 91.6% | 65.3%
17 | N.N.[Cl][Pt][Cl] [cisplatin] + Nc1ccn([C@@H]2O[C@H](CO)[C@@H](O)C2(F)F)c(=O)n1 [gemcitabine] (first compound 8 µM, partner dose 0.002 µM) | 120% | 112% | 127% | 90.7% | 85.1% | 91.4% | 92.5% | 80.3% | 44.3% | 107%
18 | N.N.[Cl][Pt][Cl] [cisplatin] + C[C@@H](Oc1cc(-c2cnn(C3CCNCC3)c2)cnc1N)c1c(Cl)ccc(F)c1Cl [Crizotinib] (first compound 8 µM, partner dose 1 µM) | 85.8% | 98.5% | 90.1% | 70.1% | 70.5% | 77.9% | 64.8% | 80.4% | 46.4% | 74.4%
19 | N.N.[Cl][Pt][Cl] [cisplatin] + Cc1ccc(NC(=O)c2cccc(N(C)C)c2)cc1NC(=O)c1ccc(O)cc1 [ZM336372] (first compound 8 µM, partner dose 10 µM) | 86.4% | 88.4% | 92.3% | 92.2% | 91.5% | 107% | 86.7% | 128% | 86.9% | 95.5%
20 | N.N.[Cl][Pt][Cl] [cisplatin] + O=C(O)c1ccc2c(c1)nc(Nc1cccc(Cl)c1)c1ccncc12 [CX4945] (first compound 8 µM, partner dose 2 µM) | 116% | 105% | 85.1% | 99.4% | 72.5% | 90.4% | 110% | 91.4% | 62.2% | 103%
21 | C[As](C)SC[C@H](NC(=O)CC[C@H](N)C(=O)O)C(=O)NCC(=O)O [Darinaparsin] + c1cc(-c2cnn3cc(-c4ccc(OCCN5CCCCC5)cc4)cnc23)ccn1 [Dorsomorphin] (first compound 2 µM, partner dose 2 µM) | 46% | 100% | 74.1% | 45% | 73.4% | 67.6% | 51.4% | 56.6% | 36.9% | 65%
22 | Cn1cc(C2=C(c3cn(C4CCN(Cc5ccccn5)CC4)c4ccccc34)C(=O)NC2=O)c2ccccc21 [Enzastaurin] + CC(=O)c1c(C)c2cnc(Nc3ccc(N4CCNCC4)cn3)nc2n(C2CCCC2)c1=O [palbociclib] (first compound 4 µM, partner dose 0.2 µM) | 48.6% | 67% | 68.8% | 45.1% | 47.9% | 50.4% | 64.9% | 49.8% | 35.7% | 50.9%

Source: the supplement of paper PMC4604168 (melanoma cell lines)
